# From the supplement of paper PMC4604168 (melanoma cell lines)
# The other results are listed elsewhere or left out. Most values come without repeats; read them as rough.
# Assays:
# Test in all cases: cell count relative to DMSO control; melanoma cells; higher = more viable cells
# Settings in all cases: library dose: low library concentration; 72 h
# [1] = tested on: COLO792
# [2] = tested on: COLO800
# [3] = tested on: COLO829
# [4] = tested on: G361
# [5] = tested on: IPC-298
# [6] = tested on: IST-MEL1
# [7] = tested on: LB2518-MEL
# [8] = tested on: LOXIMVI
# [9] = tested on: MEL-HO
# 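Also: cell number obtained by counting DAPI-stained nuclei in high-throughput microscope images with image analysis software, screen run in 1,536-well plates.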
Compound,cell count [1] [%],cell count [2] [%],cell count [3] [%],cell count [4] [%],cell count [5] [%],cell count [6] [%],cell count [7] [%],cell count [8] [%],cell count [9] [%]
"CS(=O)(=O)c1ccc(C(=O)Nc2ccc(Cl)c(-c3ccccn3)c2)c(Cl)c1 [vismodegib] + COc1ccc(-c2ccc3c(N4CCOCC4)nc(N4C[C@@H](C)O[C@@H](C)C4)nc3n2)cc1CO [KU0063794] (first compound 1 µM, partner dose 0.02 µM)",91.7,90.2,85.3,93.9,87.5,91.4,90.2,80.5,84.7
"C=C(c1ccc(C(=O)O)cc1)c1cc2c(cc1C)C(C)(C)CCC2(C)C [Bexarotene] + Cn1cc(/C=C2\C(=O)Nc3cccnc32)c2ccccc21 [GW441756] (first compound 2 µM, partner dose 0.4 µM)",87.2,98.2,60.9,87.5,96.9,102,130,113,81.3
"CS(=O)(=O)c1ccc(C(=O)Nc2ccc(Cl)c(-c3ccccn3)c2)c(Cl)c1 [vismodegib] + CN(C)S(=O)(=O)c1ccc2c(c1)/C(=C/c1cc3c([nH]1)CCCC3)C(=O)N2 [SU6656] (first compound 1 µM, partner dose 0.4 µM)",85.1,79.2,100,91.8,104,93.1,95.1,95.6,98.9
"NC1(c2ccc(-c3nc4ccn5c(=O)[nH]nc5c4cc3-c3ccccc3)cc2)CCC1 + CCN(CC)CCCCNc1ncc2cc(-c3cc(OC)cc(OC)c3)c(NC(=O)NC(C)(C)C)nc2n1 [PD173074] (first compound 0.4 µM, partner dose 0.1 µM)",72.7,76.1,106,85.4,92.4,91.2,88.8,63.8,84.9
"CCCS(=O)(=O)Nc1ccc(F)c(C(=O)c2c[nH]c3ncc(Cl)cc23)c1F + CO[C@@H]1[C@H](N(C)C(=O)c2ccccc2)C[C@H]2O[C@]1(C)n1c3ccccc3c3c4c(c5c6ccccc6n2c5c31)C(=O)NC4 [Midostaurin] (first compound 0.08 µM, partner dose 0.08 µM)",93.3,71.3,103,91.3,95.8,102,96.4,86.5,88.5
"C=C(c1ccc(C(=O)O)cc1)c1cc2c(cc1C)C(C)(C)CCC2(C)C [Bexarotene] + CCc1ccc(CCOc2ccc(CC3SC(=O)NC3=O)cc2)nc1 [pioglitazone] (first compound 2 µM, partner dose 2 µM)",75.6,156,109,89.4,102,99.4,114,147,103
"CCCS(=O)(=O)Nc1ccc(F)c(C(=O)c2c[nH]c3ncc(Cl)cc23)c1F + CC(C)(C)c1cnc(CSc2cnc(NC(=O)C3CCNCC3)s2)o1 [SNS-032] (first compound 0.08 µM, partner dose 0.01 µM)",91.2,92,121,89.8,91.9,88,77.7,94.2,83.3
"CS(=O)(=O)c1ccc(C(=O)Nc2ccc(Cl)c(-c3ccccn3)c2)c(Cl)c1 [vismodegib] + N#Cc1c(O)c2c(-c3ccc(-c4ccccc4O)cc3)csc2[nH]c1=O [A769662] (first compound 1 µM, partner dose 2 µM)",98.5,117,105,99.3,103,97,95.4,66,96.4
"C=C(c1ccc(C(=O)O)cc1)c1cc2c(cc1C)C(C)(C)CCC2(C)C [Bexarotene] + O=C(Nc1cccc(Cl)c1)Nc1ncc(CCNc2ncnc3ccsc23)s1 [SNS314] (first compound 2 µM, partner dose 0.0008 µM)",97,113,94.5,103,94.4,83.9,84.6,128,99.1
"CCCS(=O)(=O)Nc1ccc(F)c(C(=O)c2c[nH]c3ncc(Cl)cc23)c1F + COc1ccc(COc2ccc(Cc3cnc(N)nc3N)cc2OC)cc1 [GW2580] (first compound 0.08 µM, partner dose 1 µM)",103,120,112,84.8,91.9,101,137,82,92.6
"CN(c1ncccc1CNc1nc(Nc2ccc3c(c2)CC(=O)N3)ncc1C(F)(F)F)S(C)(=O)=O + CC(C)CCN1c2nc(Nc3cc(F)c(O)c(F)c3)ncc2N(C)C(=O)C1C [BID1870] (first compound 0.08 µM, partner dose 0.2 µM)",80,110,100,88.8,97.7,96.4,104,59.7,92.6
"CN(c1ncccc1CNc1nc(Nc2ccc3c(c2)CC(=O)N3)ncc1C(F)(F)F)S(C)(=O)=O + CC(C)(C)c1cnc(CSc2cnc(NC(=O)C3CCNCC3)s2)o1 [SNS-032] (first compound 0.08 µM, partner dose 0.01 µM)",89.8,101,66.5,98.2,100,101,81.5,82.7,104
"NC1(c2ccc(-c3nc4ccn5c(=O)[nH]nc5c4cc3-c3ccccc3)cc2)CCC1 + O=C(CCCCCCC(=O)Nc1ccccc1)NO [vorinostat] (first compound 0.4 µM, partner dose 0.08 µM)",65.4,97.5,91.5,79.4,102,94,99.3,56.7,78.3
"CCCS(=O)(=O)Nc1ccc(F)c(C(=O)c2c[nH]c3ncc(Cl)cc23)c1F + CN(C)S(=O)(=O)c1ccc2c(c1)/C(=C/c1cc3c([nH]1)CCCC3)C(=O)N2 [SU6656] (first compound 0.08 µM, partner dose 0.4 µM)",83.7,82.9,93.4,100,92.1,90.9,98.2,176,91.5
"NC1(c2ccc(-c3nc4ccn5c(=O)[nH]nc5c4cc3-c3ccccc3)cc2)CCC1 + Oc1nc(-c2ccc(C(F)(F)F)cc2)nc2c1CSCC2 [XAV939] (first compound 0.4 µM, partner dose 2 µM)",64.9,68.2,121,96.5,110,109,86.2,76.4,97
"CN(c1ncccc1CNc1nc(Nc2ccc3c(c2)CC(=O)N3)ncc1C(F)(F)F)S(C)(=O)=O + O=c1cc(-c2cccc3c2Sc2ccccc2S3)oc(N2CCOCC2)c1 [KU55933] (first compound 0.08 µM, partner dose 1 µM)",87,111,78.4,89.9,96.6,95.9,126,177,69
"CN(c1ncccc1CNc1nc(Nc2ccc3c(c2)CC(=O)N3)ncc1C(F)(F)F)S(C)(=O)=O + NCC(=O)Nc1ccc(-n2nc(C(F)(F)F)cc2-c2ccc3c(ccc4ccccc43)c2)cc1 [OSU03012] (first compound 0.08 µM, partner dose 1 µM)",70.2,159,49,88.6,87.1,92,86.2,126,76.6
"C=C(c1ccc(C(=O)O)cc1)c1cc2c(cc1C)C(C)(C)CCC2(C)C [Bexarotene] + NCC(=O)Nc1ccc(-n2nc(C(F)(F)F)cc2-c2ccc3c(ccc4ccccc43)c2)cc1 [OSU03012] (first compound 2 µM, partner dose 1 µM)",93.9,64.3,79.6,82.4,84.1,86.3,119,79.7,93.8
"CCCS(=O)(=O)Nc1ccc(F)c(C(=O)c2c[nH]c3ncc(Cl)cc23)c1F + COc1ccc2c(c1)CCC1C2CCC2(C)C(NCCCCCCN3C(=O)C=CC3=O)CCC12 [U73122] (first compound 0.08 µM, partner dose 0.4 µM)",111,77.4,123,90.2,96.7,90.6,108,93.8,88.7
"CS(=O)(=O)c1ccc(C(=O)Nc2ccc(Cl)c(-c3ccccn3)c2)c(Cl)c1 [vismodegib] + Oc1nc(-c2ccc(C(F)(F)F)cc2)nc2c1CSCC2 [XAV939] (first compound 1 µM, partner dose 2 µM)",80,99.4,105,94.8,95.8,97.2,95,81.5,96.6
"CN(c1ncccc1CNc1nc(Nc2ccc3c(c2)CC(=O)N3)ncc1C(F)(F)F)S(C)(=O)=O + C[C@@H]1CCN(C(=O)CC#N)C[C@@H]1N(C)c1ncnc2[nH]ccc12 [CP690550] (first compound 0.08 µM, partner dose 1 µM)",91.4,79.2,89.2,96.5,100,97.5,88.6,153,94.5
